Measurements published in PubChem BioAssay AID624171 (National Center for Advancing Translational Sciences (NCATS), 2012).
Hit rate of the full screen: of about 410,000 compounds, about 1,200 (0.29%) were called active. The inconclusive results got no clear call from the source; some entries with a clear call stand among them for comparison. Calls come from the whole dose curve; as a rule, active = well fitted activation curve with a large enough effect; inconclusive = small, poorly fitted or top-dose-only effect; inactive = flat fitted curve, though single readings scatter. Potencies beside an inconclusive call are fits to weak or partial responses and may not hold up.

Experiment: qHTS of Nrf2 Activators; note: nearly all actives have a fitted effect of over 65% in size; for activation: % of control where 0% means no effect
Conditions: AREc32 ARE-luciferase reporter (MCF7-derived line), luminescence, 24 h; activation: at 46.1 µM (top of the series)
Summary of the method: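 AREc32 cells carrying an ARE-driven firefly luciferase, 1000 cells/well in OPTI-MEM with 5% FBS, dosed after overnight attachment and incubated 24 hr at 37 deg C. Steady-Glo luminescence read after 30 min at RT.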
Potency is the fitted concentration of half-maximal effect; tags give direction and shape of the fitted curve.

Potency, inconclusive:
Cc1ccc(NCCC(=O)c2cccc([N+](=O)[O-])c2)cc1 17.8 µM [activator, single point]
O=C(Nc1ncccc1O)c1ccc(NS(=O)(=O)c2ccc3[nH]c(=O)[nH]c3c2)cc1 17.8 µM [activator, partial curve, poor fit]
c1ccc(-c2nnc(-c3ccco3)o2)cc1 3.16 µM [activator, partial curve, poor fit]
O=C(Nn1c(C2CCCCC2)nc2ccccc2c1=O)c1ccc(Cl)c([N+](=O)[O-])c1 35.5 µM [activator, single point]
COc1ccc(C(=O)N2CCN(CCc3ccccc3)CC2)cc1[N+](=O)[O-] 31.6 µM [activator, single point]
Oc1ccc(F)c2cccnc12 31.6 µM [activator, single point]
COc1ccc(N(C(=O)CCl)C(C(=O)NCCc2ccccc2)c2cccs2)cc1Cl (stereo unspecified) 3.55 µM [activator, single point]
COc1ccc(-c2nc3ccccc3s2)cc1O 3.98 µM [activator, partial curve, poor fit]
C[n+]1cn(/N=C/c2ccccc2)c2ccccc21 22.4 µM [activator, single point]
COc1ccc([N+](=O)[O-])cc1NC(=O)c1cncc(Br)c1 14.1 µM [activator, single point]
COc1ccc(OC)c(C(=O)Nc2c(O)ccc3ccccc23)c1 1.58 µM [activator, partial curve, poor fit]
CCCCCC(=O)Nc1sc(C)c(C)c1C#N 14.1 µM [activator, single point]
COC(=O)/C(=C(O)\C=C\c1ccccc1[N+](=O)[O-])c1nc2ccccc2[nH]1 11.2 µM [activator, partial curve, poor fit]
CC1CCCCN1CCNC(=O)c1cc2c(=O)n(C)c3ccccc3c2n1C (stereo unspecified) 17.8 µM [activator, single point]
Oc1ccc(-c2csc(Nc3ncccn3)n2)cc1O 12.6 µM [activator, partial curve, poor fit]
CCSc1nc2ccccc2n1C(=O)/C=C\c1ccc(OC)c(OC)c1 3.16 µM [activator, full curve, poor fit]
O=C(O)CN1C(=O)/C(=C\C(Br)=C\c2ccccc2)SC1=S 22.4 µM [activator, single point]
Cc1ccnc(NC(=O)c2ccc(Cl)s2)c1 12.6 µM [activator, partial curve, poor fit]
Cc1ccc(N=C/C(C(=O)C(F)(F)F)=C(\O)c2ccco2)cc1Cl 2.82 µM [activator, full curve, poor fit]
Cc1ccc(-c2nn3c(C)nnc3c3ccccc23)cc1S(=O)(=O)N1CCN(CCO)CC1 25.1 µM [activator, single point]
Oc1ccc2c(c1)OCC1(O)Cc3cc(O)c(O)cc3C21 (stereo unspecified) 35.5 µM [activator, partial curve, poor fit]
Cn1nc(C(=O)OCc2ccccc2F)c2ccccc2c1=O 22.4 µM [activator, single point]
CCCN(CCC)C(=O)CSc1nc2ccsc2c(=O)n1NC(=O)c1ccccc1 17.8 µM [activator, single point]
c1ccc(Oc2nnc(-c3cccs3)c3ccccc23)cc1 15.8 µM [activator, single point]
CCOc1ccccc1C(=O)NCc1nc2cccnc2n1Cc1ccc(C)cc1 2.82 µM [activator, partial curve, poor fit]
COc1cc(OC)c(C(=O)/C=C/c2ccc(OCc3ccccc3)c(OC)c2)c(OC)c1 22.4 µM [activator, single point]
COc1ccc(CCN2C(=O)c3cccc4cccc(c34)C2=O)cc1OC 12.6 µM [activator, partial curve, poor fit]
COc1ccc(/C(C)=N/Nc2ncc(Cl)cc2Cl)c(O)c1 14.1 µM [activator, partial curve, poor fit]
Cc1ccc(NC(=S)NC(=O)/C=C/c2ccco2)c(O)c1 11.2 µM [activator, partial curve]
COc1ccc(CCNS(=O)(=O)c2cnc(Cl)c(Br)c2)cc1OC 17.8 µM [activator, single point]
COc1ccc(Cl)cc1NC(=O)c1noc(C)c1[N+](=O)[O-] 3.16 µM [activator, single point]
O=C(NP(=O)(N1CCOCC1)N1CCOCC1)C1=C(N2CCOCC2)/C(=C\c2ccccc2)CC1 35.5 µM [activator, single point]
O=C(CSc1ccc2nnc(-c3ccccn3)n2n1)NCc1ccco1 17.8 µM [activator, single point]
COc1ccc2c(c1)C(C)=CC(C)(C)N2C(=O)Nc1ccccc1 35.5 µM [activator, partial curve, poor fit]
Cc1ccccc1-c1noc(-c2ccccc2C(=O)NCc2ccco2)n1 4.47 µM [activator, full curve]
CC(C)Oc1ccc(C(=O)CCN2CCCCC2)cc1 28.2 µM [activator, single point]
COC(=O)C1=C(C)N(C)C(=O)NC1c1ccc([N+](=O)[O-])o1 (stereo unspecified) 17.8 µM [activator, single point]
CCOC(=O)c1c(C)oc2c(CC(=O)c3ccccc3)c(Cl)c(O)c(O)c12 20 µM [activator, single point]
O=C1NC(=Nc2ccc(O)cc2)S/C1=C/c1ccco1 1 µM [activator, full curve, poor fit]
N/C(=N\OC(=O)c1cccs1)c1ccc(Cl)cc1 15.8 µM [activator, partial curve, poor fit]
O=C(NCc1cccs1)c1cccnc1SCCS(=O)(=O)c1ccc(C(F)(F)F)cn1 22.4 µM [activator, single point]
N/C(=N\OC(=O)c1cc(Br)ccc1Cl)c1cccnc1 1.41 µM [activator, full curve, poor fit]
CC(C)(C)NC(=O)CSc1ncnc2c1nnn2Cc1ccccc1Cl 31.6 µM [activator, single point]
COc1ccc(NC(=O)Nc2nnc(-c3ccccc3F)s2)cc1 1.41 µM [activator, full curve, poor fit]

Potency, active:
COc1ccc(Cl)cc1NC(=O)c1cc(C)no1 8.91 µM
O=C(NC(=S)Nc1ccc(Cl)cn1)c1cccs1 6.31 µM
COc1ccc(Cl)cc1NC(=O)c1ccco1 5.01 µM
CCn1c(SCc2nc3ccccc3s2)nnc1-c1cccs1 14.1 µM
Cc1cc2nc(-c3cccc(Br)c3)c(Cc3ccccc3)n2c(C)c1Br 11.2 µM

Potency, inactive:
C=CCOC(=O)c1[nH]c2c(c1C)C(=O)CC(c1cc(OC)c(OC)c(OC)c1)C2 (stereo unspecified)
Cc1cccc(NC(=O)Nc2ccc(F)cc2)n1
O=C(Nc1ccccc1N1CCOCC1)C1=NN(c2ccccc2)C(=O)CC1
Cc1cccc2c1cnn2C(=O)CCC(=O)NCc1ccc(F)cc1
COc1nc(-c2ccc(C)cc2)ccc1-c1noc(-c2ccccc2Br)n1
O=C(NCc1ccncc1)Nc1cc(Cl)ccc1Cl
CCCOc1cccc(C(=O)N/N=C/c2ccoc2)c1
COc1cccc(CSc2nc3n(n2)C(c2cccs2)C(C(=O)Nc2ccccc2C)=C(C)N3)c1 (stereo unspecified)
CC12CCC(=O)N1C(C(=O)Nc1ccc(S(=O)(=O)N3CCCCC3)cc1)CS2 (stereo unspecified)
Cc1onc(-c2c(F)cccc2Cl)c1C(=O)c1ccccc1O
COC(=O)c1ccc(COC(=O)c2ccc(SC)cc2OC)cc1
Cc1ccc(-c2cc(C(=O)Nc3ccccc3C)c3ccccc3n2)o1
CCOc1cc(/C=N/O)ccc1OCc1ccc([N+](=O)[O-])cc1
COc1cc(C(=O)NCc2nc3cccnc3n2Cc2ccc(C)cc2)cc(OC)c1OC
CC1CCCCC1NC(=O)NC(=O)COC(=O)c1cncc(Br)c1 (stereo unspecified)
CCN1CCN(C(c2ccccc2Cl)c2c(O)cc(C)n(Cc3ccco3)c2=O)CC1 (stereo unspecified)
COc1ccc(C2C(C(=O)Nc3ccc(C)cc3C)=C(C)Nc3nc(SCc4cccc(C)c4)nn32)c(OC)c1 (stereo unspecified)
Cc1ccc(S[C@@H](CCN2CC[C@H](O)CCC2=O)c2ccccc2)cc1
COc1cccc2cc(C(=O)Nc3ccccc3C(=O)N3CCOCC3)oc12
CCOC(=O)C1=C[C@@H](C(C)(C)C)N(S(=O)(=O)c2ccc(OC)cc2)[C@H]1c1ccccc1
O=c1cc(NS(=O)(=O)c2ccccc2)nc(SCc2ccc(Cl)cc2)[nH]1

activation, inactive:
CCC(CC)=NNc1cccc([N+](=O)[O-])c1 -0.687% [at 9.22 µM]
